Laboratory results from patent publication US20240181007A1, “COMPOSITIONS AND METHODS FOR TREATING PULMONARY HYPERTENSION” (Acceleron Pharma Inc., priority 2021, published 2024).

T1: activin A (UniProt P08476 311-426)
T1 construct: Soluble ligand injected in SPR or added in the reporter assay
T1 sequence (looked up): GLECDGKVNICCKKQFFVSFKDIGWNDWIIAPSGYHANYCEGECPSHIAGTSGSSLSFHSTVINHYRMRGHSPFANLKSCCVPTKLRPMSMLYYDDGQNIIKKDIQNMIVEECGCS

T2: activin B (UniProt P09529 293-407)
T2 sequence (looked up): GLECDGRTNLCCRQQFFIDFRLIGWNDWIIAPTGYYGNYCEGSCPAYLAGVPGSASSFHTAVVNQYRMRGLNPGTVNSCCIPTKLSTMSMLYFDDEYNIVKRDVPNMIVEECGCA

T3: GDF11 (UniProt O95390 299-407)
T3 sequence (looked up): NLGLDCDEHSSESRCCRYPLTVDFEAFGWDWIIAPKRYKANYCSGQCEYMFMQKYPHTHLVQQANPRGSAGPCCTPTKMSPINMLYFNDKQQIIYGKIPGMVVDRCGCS

T4: BMP9 (UniProt Q9UK05 320-429)
T4 sequence (looked up): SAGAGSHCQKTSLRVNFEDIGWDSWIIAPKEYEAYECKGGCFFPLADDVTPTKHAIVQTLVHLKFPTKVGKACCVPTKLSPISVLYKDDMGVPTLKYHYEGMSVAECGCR

T5: BMP10 (UniProt O95393 317-424)
T5 sequence (looked up): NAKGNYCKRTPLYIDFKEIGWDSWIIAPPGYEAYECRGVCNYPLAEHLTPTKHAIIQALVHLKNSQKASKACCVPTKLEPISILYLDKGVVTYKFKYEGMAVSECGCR

T6: GDF8 (UniProt O14793 267-375)
T6 sequence (looked up): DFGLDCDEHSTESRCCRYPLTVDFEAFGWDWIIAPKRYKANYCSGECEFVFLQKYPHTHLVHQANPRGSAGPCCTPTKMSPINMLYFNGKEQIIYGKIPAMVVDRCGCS


How the values were obtained:
activin A [1] = biological target: T1, activin A; experiment: SPR (Biacore), 37 C; Fc fusion captured via anti-Fc, ligand injected
Experimental: (§1) To determine ligand binding profiles of variant ActRIIB-Fc homodimers, a Biacore™-based binding assay was used to compare ligand binding kinetics of certain variant ActRIIB-Fc polypeptides. ActRIIB-Fc polypeptides to be tested were independently captured onto the system using an anti-Fc antibody. Ligands were then injected and allowed to flow over the captured receptor protein. ActRIIB-G1Fc was used as the control polypeptide.

activin B [2] = biological target: T2, activin B; experiment: as above
Experimental: as §1

activin A [3] = biological target: T1, activin A; experiment: cell-based or functional assay
GDF11 [4] = biological target: T3, GDF11; experiment: cell-based or functional assay
BMP9 = biological target: T4, BMP9; experiment: cell-based or functional assay
activin B [5] = biological target: T2, activin B; experiment: cell-based or functional assay
GDF11 [6] = biological target: T3, GDF11; experiment: cell-based or functional assay; remark: listed apart in the source
BMP10 = biological target: T5, BMP10; experiment: cell-based or functional assay
activin A [7] = biological target: T1, activin A; experiment: SPR (Biacore), 37 C; Fc fusion captured via anti-Fc, ligand injected; ka/kd cell reads Transient* (indeterminate, transient interaction)
Experimental: as §1

activin A [8] = biological target: T1, activin A; experiment: cell-based or functional assay; remark: listed apart in the source
GDF8 = biological target: T6, GDF8; experiment: cell-based or functional assay

Row | Binder | Kd (activin A [1]) [nM] | koff (activin A [1]) [s⁻¹] | kon (activin A [1]) [M⁻¹ s⁻¹] | Kd (activin B [2]) [nM] | koff (activin B [2]) [s⁻¹] | kon (activin B [2]) [M⁻¹ s⁻¹] | IC50 (ng/ml), A204 CAGA12 luciferase reporter assay (activin A [3]) [ng/mL] | IC50 (ng/ml), A204 CAGA12 luciferase reporter assay (GDF11 [4]) [ng/mL] | IC50 (ng/ml), A204 CAGA12 luciferase reporter assay (BMP9) [ng/mL] | IC50 (nM), A204 CAGA12 luciferase reporter assay (activin B [5]) [nM] | IC50 (nM), A204 CAGA12 luciferase reporter assay (GDF11 [6]) [nM] | IC50 (nM), A204 CAGA12 luciferase reporter assay (BMP10) [nM] | Kd (activin A [7]) [nM] | IC50 (nM), A204 CAGA12 luciferase reporter assay (activin A [8]) [nM] | binding result (activin A [1]) | IC50 (nM), A204 CAGA12 luciferase reporter assay (GDF8) [nM]
1 | ActRIIB E50L (Fc fusion, also called ActRIIB(E50L)-G1Fc) ActRIIB extracellular domain-G1Fc fusion chain: GRGEAETRECIYYNANWELERTNQSGLERCLGEQDKRLHCYASWRNSSGTIELVKKGCWLDDFNCYDRQECVATEENPQVYFCCCEGNFCNERFTHLPEAGGPEVTYEPPPTAPTG[human IgG1 Fc and a few adjoining residues left out here] | 0.0456 | 0.000858 | 1.88e+07 | 0.159 | 0.000262 | 1.64e+06 | – | – | – | – | – | – | – | – | – | –
2 | ActRIIB L38N/L79R (Fc fusion, also called ActRIIB(L38N-L79R)-G1Fc) ActRIIB extracellular domain-G1Fc fusion chain: GRGEAETRECIYYNANWENERTNQSGLERCEGEQDKRLHCYASWRNSSGTIELVKKGCWRDDFNCYDRQECVATEENPQVYFCCCEGNFCNERFTHLPEAGGPEVTYEPPPTAPTG[human IgG1 Fc and a few adjoining residues left out here] | 0.339 | 0.00444 | 1.31e+07 | 0.0369 | 0.000278 | 7.53e+06 | – | – | – | – | – | – | – | – | – | –
3 | L79K (homodimeric ActRIIB-Fc construct) (Fc fusion) GRGEAETRECIYYNANWELERTNQSGLERCEGEQDKRLHCYASWRNSSGTIELVKKGCWKDDFNCYDRQECVATEENPQVYFCCCEGNFCNERFTHLPEAGGPEVTYEPPPTAPTG[human IgG1 Fc and a few adjoining residues left out here] | – | – | – | – | – | – | – | 477 | – | – | – | – | – | – | – | –
4 | ActRIIB(F82I)-G1Fc (Fc fusion, Homodimeric Fc fusion; substitution already in the entry; also called ActRIIB(F82I)-Fc) GRGEAETRECIYYNANWELERTNQSGLERCEGEQDKRLHCYASWRNSSGTIELVKKGCWLDDINCYDRQECVATEENPQVYFCCCEGNFCNERFTHLPEAGGPEVTYEPPPTAPTG[human IgG1 Fc and a few adjoining residues left out here] | – | – | – | – | – | – | 11 | 9 | 277 | – | – | – | – | – | – | –
5 | ActRIIB V99G (Fc fusion, also called ActRIIB(V99G)-G1Fc) ActRIIB extracellular domain-G1Fc fusion chain: GRGEAETRECIYYNANWELERTNQSGLERCEGEQDKRLHCYASWRNSSGTIELVKKGCWLDDFNCYDRQECVATEENPQGYFCCCEGNFCNERFTHLPEAGGPEVTYEPPPTAPTG[human IgG1 Fc and a few adjoining residues left out here] | – | – | – | 0.847 | 0.00218 | 2.58e+06 | – | – | – | – | – | – | – | – | no binding | –
6 | ActRIIB(K55E)-G1Fc (Fc fusion, Homodimeric Fc fusion; substitution already in the entry; also called ActRIIB(K55E)-Fc) GRGEAETRECIYYNANWELERTNQSGLERCEGEQDERLHCYASWRNSSGTIELVKKGCWLDDFNCYDRQECVATEENPQVYFCCCEGNFCNERFTHLPEAGGPEVTYEPPPTAPTG[human IgG1 Fc and a few adjoining residues left out here] | – | – | – | – | – | – | 19 | 14 | 290 | – | – | – | – | – | – | –
7 | ActRIIB(L79H)-G1Fc (Fc fusion, Homodimeric Fc fusion; substitution already in the entry) GRGEAETRECIYYNANWELERTNQSGLERCEGEQDKRLHCYASWRNSSGTIELVKKGCWHDDFNCYDRQECVATEENPQVYFCCCEGNFCNERFTHLPEAGGPEVTYEPPPTAPTG[human IgG1 Fc and a few adjoining residues left out here] | – | – | – | 0.0169 | 0.000267 | 1.58e+07 | – | – | – | 0.07 | 0.24 | > 100 | 9.19 | > 10 | – | 5.7

Now from value to binder:

Row | Kd (activin A [1]) [nM] | koff (activin A [1]) [s⁻¹] | kon (activin A [1]) [M⁻¹ s⁻¹] | Kd (activin B [2]) [nM] | koff (activin B [2]) [s⁻¹] | kon (activin B [2]) [M⁻¹ s⁻¹] | IC50 (ng/ml), A204 CAGA12 luciferase reporter assay (activin A [3]) [ng/mL] | IC50 (ng/ml), A204 CAGA12 luciferase reporter assay (GDF11 [4]) [ng/mL] | IC50 (ng/ml), A204 CAGA12 luciferase reporter assay (BMP9) [ng/mL] | IC50 (nM), A204 CAGA12 luciferase reporter assay (activin B [5]) [nM] | IC50 (nM), A204 CAGA12 luciferase reporter assay (GDF11 [6]) [nM] | IC50 (nM), A204 CAGA12 luciferase reporter assay (BMP10) [nM] | Kd (activin A [7]) [nM] | IC50 (nM), A204 CAGA12 luciferase reporter assay (activin A [8]) [nM] | binding result (activin A [1]) | IC50 (nM), A204 CAGA12 luciferase reporter assay (GDF8) [nM] | Binder
8 | – | – | – | – | – | – | 15 | 11 | 122 | – | – | – | – | – | – | – | ActRIIB(K55A)-G1Fc (Fc fusion, Homodimeric Fc fusion; substitution already in the entry; also called ActRIIB(K55A)-Fc) GRGEAETRECIYYNANWELERTNQSGLERCEGEQDARLHCYASWRNSSGTIELVKKGCWLDDFNCYDRQECVATEENPQVYFCCCEGNFCNERFTHLPEAGGPEVTYEPPPTAPTG[human IgG1 Fc and a few adjoining residues left out here]
9 | – | – | – | 0.0196 | 0.000316 | 1.61e+07 | – | – | – | 0.1 | > 100 | > 100 | 11.7 | – | – | – | ActRIIB(L79H-F82K)-G1Fc (Fc fusion, Homodimeric Fc fusion; substitutions already in the entry) GRGEAETRECIYYNANWELERTNQSGLERCEGEQDKRLHCYASWRNSSGTIELVKKGCWHDDKNCYDRQECVATEENPQVYFCCCEGNFCNERFTHLPEAGGPEVTYEPPPTAPTG[human IgG1 Fc and a few adjoining residues left out here]
10 | 0.2 | 0.00482 | 2.41e+07 | 0.0109 | 0.000246 | 2.25e+07 | – | – | – | 0.11 | 17.9 | 12.6 | – | 1.52 | – | – | ActRIIB(F82T-N83R)-G1Fc (Fc fusion, Homodimeric Fc fusion; substitutions already in the entry) GRGEAETRECIYYNANWELERTNQSGLERCEGEQDKRLHCYASWRNSSGTIELVKKGCWLDDTRCYDRQECVATEENPQVYFCCCEGNFCNERFTHLPEAGGPEVTYEPPPTAPTG[human IgG1 Fc and a few adjoining residues left out here]
11 | 0.327 | 0.00583 | 1.79e+07 | 0.0073 | 0.000161 | 2.22e+07 | – | – | – | 0.08 | 9.95 | 13.2 | – | 1.67 | – | – | ActRIIB(F82I-N83R)-G1Fc (Fc fusion, Homodimeric Fc fusion) GRGEAETRECIYYNANWELERTNQSGLERCEGEQDKRLHCYASWRNSSGTIELVKKGCWLDDIRCYDRQECVATEENPQVYFCCCEGNFCNERFTHLPEAGGPEVTYEPPPTAPTG[human IgG1 Fc and a few adjoining residues left out here]
12 | 0.513 | 0.00812 | 1.58e+07 | 0.0085 | 0.000203 | 2.39e+07 | – | – | – | 0.09 | – | 0.53 | – | 1.32 | – | – | ActRIIB(F82K-N83R)-G1Fc (Fc fusion, Homodimeric Fc fusion; substitutions already in the entry) GRGEAETRECIYYNANWELERTNQSGLERCEGEQDKRLHCYASWRNSSGTIELVKKGCWLDDKRCYDRQECVATEENPQVYFCCCEGNFCNERFTHLPEAGGPEVTYEPPPTAPTG[human IgG1 Fc and a few adjoining residues left out here]
13 | 0.0109 | 0.000204 | 1.87e+07 | 0.012 | 0.000223 | 1.85e+07 | – | – | – | 0.09 | 0.27 | 0.07 | – | 0.1 | – | 2.17 | ActRIIB(F82T)-G1Fc (Fc fusion, Homodimeric Fc fusion; substitution already in the entry) GRGEAETRECIYYNANWELERTNQSGLERCEGEQDKRLHCYASWRNSSGTIELVKKGCWLDDTNCYDRQECVATEENPQVYFCCCEGNFCNERFTHLPEAGGPEVTYEPPPTAPTG[human IgG1 Fc and a few adjoining residues left out here]
14 | – | – | – | – | – | – | 10 | 15 | ~5000 | – | – | – | – | – | – | – | ActRIIB(F82K)-G1Fc (Fc fusion, Homodimeric Fc fusion; substitution already in the entry; also called ActRIIB(F82K)-Fc) GRGEAETRECIYYNANWELERTNQSGLERCEGEQDKRLHCYASWRNSSGTIELVKKGCWLDDKNCYDRQECVATEENPQVYFCCCEGNFCNERFTHLPEAGGPEVTYEPPPTAPTG[human IgG1 Fc and a few adjoining residues left out here]
